According to ChEMBL document CHEMBL1201862, “PubChem BioAssay data set” (2004):
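Method: 48-hour compound exposure of cells in 96-well plates, five concentrations, linear interpolation of endpoints. GI50 marks 50% less growth.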 The source made the active and inactive calls. Rule as the data show it: active = GI50 up to about 1.1 µM and inactive = higher.

The compounds below were run on NCI-H322M (assay: NCI anticancer screen, dose series, 48 h).
In the case of `O=C(O)c1nc(-c2ccccc2)[nH]c1C(=O)O`, the GI50 is reported as inactive: 17.1 µM.
With `NC(=O)/N=C(\N)NC(=O)c1ccccc1` the GI50 was inactive: > 100 µM.
In the case of `O=C1CCCc2cc3c(cc21)CC1(C3)Cc2cc3c(cc2C1)C(=O)CCC3`, the GI50 is reported as inactive: 4.46 µM.
`COc1cc2c(cc1OC)C(C1(O)CCCCC1)NCC2` (configuration not stated) was tested, and the GI50 was inactive: > 100 µM.
For `Cc1ccc(S(=O)(=O)c2ccsc2NC(=O)c2ccccc2)cc1`, the GI50 was inactive: > 100 µM.
With `OC(COc1cccc2ccccc12)CN1CCOCC1` (configuration not stated) the GI50 was inactive: > 100 µM.
`Cc1nc2c(nc1C)C(=O)C1=C(C2=O)C2C=CC1CC2` was tested, and the GI50 was inactive: 15.5 µM.
With `O=[N+]([O-])CC(SCc1ccccc1)c1ccc2c(c1)OCO2` (configuration not stated) the GI50 was inactive: 18.6 µM.
In the case of `O=C(NC(Cc1ccc(Br)cc1)C(=O)O)c1ccc(I)cc1` (configuration not stated), the GI50 is reported as inactive: > 100 µM.
In the case of `O=C(Nc1ccc([N+](=O)[O-])cc1[N+](=O)[O-])C(=O)C(C(=O)c1ccc2ccccc2c1)C1OC(=O)c2ccccc21` (configuration not stated), the GI50 is reported as inactive: 13.2 µM.
`CCOC(=O)/C(=C/c1ccc(Cl)cc1)N(CC)CC` was tested, and the GI50 was inactive: > 100 µM.
For `CN(C)CCNC(=O)c1cccc2c(NC(CCCNC(=N)N)C(=O)O)c3ccccc3nc12` (configuration not stated), the GI50 was inactive: 10.6 µM.
In the case of `CCCOP(=O)(OCCC)OC(C(F)(F)F)C(F)(F)F`, the GI50 is reported as inactive: > 100 µM.
`CCOC(=O)c1sc2c(c1OC(=O)c1cc(OC)c(OC)c(OC)c1)c(=O)n(-c1ccccc1)c(=S)n2-c1ccccc1` was tested, and the GI50 was inactive: > 100 µM.
With `CCCCC(/C=C\COC1CCCCO1)=C/C(=O)OCC` (configuration not stated) the GI50 was inactive: > 100 µM.
For `CCOC(=O)NCC(=O)NCC(=O)NCC(N)=O`, the GI50 was inactive: > 100 µM.
In the case of `O=C1OC(c2ccccc2)N/C1=C\c1ccc2c(c1)OCO2` (configuration not stated), the GI50 is reported as inactive: > 100 µM.
For `CC1=C(c2ccccc2)C(c2ccccc2)=C(c2ccccc2)C2(c3ccccc3)C(=O)C(C)CN12` (configuration not stated), the GI50 was inactive: 81.5 µM.
For `COc1ccc(OC)c(C[P+](c2ccccc2)(c2ccccc2)c2ccccc2)c1`, the GI50 was inactive: 5.32 µM.
`O=C(CN1CCOCC1)CC(O)(C(F)(F)F)C(F)(F)F` was tested, and the GI50 was inactive: > 100 µM.
In the case of `O=C(O)C1CCC(=O)N1C(=O)COc1cc(Cl)c(Cl)cc1Cl` (configuration not stated), the GI50 is reported as inactive: > 100 µM.
`C#CC(C)(C)Oc1cc(O)c2c(=O)c3ccccc3n(C)c2c1` was tested, and the GI50 was inactive: > 100 µM.
With `CC(C)/C(Cl)=N\OC(=O)Nc1ccc(C#N)cc1` the GI50 was inactive: 17.7 µM.
`S=C(c1c[nH]c2ccccc12)N1CCN(Cc2ccccc2)CC1` was tested, and the GI50 was inactive: 21.8 µM.
With `Nc1ccc(C2NC(=O)Cc3c2ccc2ccccc32)cc1` (configuration not stated) the GI50 was inactive: > 100 µM.
With `CC(=O)Nc1ncc2c(n1)-c1ccccc1OC2c1ccccc1` (configuration not stated) the GI50 was inactive: > 100 µM.
For `COc1ccc(CCCNC(=O)Cc2ccccc2CO)cc1OC`, the GI50 was inactive: > 100 µM.
With `OC(C/C(=N\N1CCCCC1)c1cccs1)(C(F)(F)F)C(F)(F)F` the GI50 was inactive: > 10 µM.
`Cc1c2c(n(CCc3ccccc3)c1C)N(C)N=C(C#N)S2(=O)=O` was tested, and the GI50 was inactive: > 100 µM.
In the case of `CCc1cc(Cc2cc(CC)c(NC(=O)C(=O)Cc3ccccn3)c(CC)c2Cl)c(Cl)c(CC)c1NC(=O)C(=O)Cc1ccccn1`, the GI50 is reported as inactive: > 100 µM.
For `N#Cc1c(C#N)c(SSc2c(C#N)c(C#N)c(N)n2-c2ccc(F)cc2)n(-c2ccc(F)cc2)c1N`, the GI50 was inactive: 17.4 µM.
With `CC(O)[C@@]1(c2ccccc2)CC2(CCN(C)CC2)O[C@H]1C` (some centres not stated) the GI50 was inactive: > 100 µM.
`COc1cc(Cc2nccc3cc(OC)c(OC)cc23)c(/N=N/N(C)C)cc1OC` was tested, and the GI50 was inactive: 20.7 µM.
In the case of `NC(CCOCCP(=O)(O)O)C(=O)O` (configuration not stated), the GI50 is reported as inactive: > 100 µM.
In the case of `Cc1cc(C)c(-c2no/c(=N\S(=O)(=O)c3ccc(Cl)cc3)o2)c(C)c1`, the GI50 is reported as inactive: > 100 µM.
In the case of `CC(C)[C@@H]1CC[C@@H](C)C[C@H]1OC(=O)/C=C1\C(C(=O)O[C@@H]2C[C@H](C)CC[C@H]2C(C)C)[C@H]2C=C[C@@H]1O2` (some centres not stated), the GI50 is reported as inactive: > 100 µM.
In the case of `CNC(=O)CCC(NC(=O)OC(C)(C)C)C(=O)NC(Cc1ccc(NC(=O)CCCCC(C)=O)cc1)C(=O)NCC(=O)NC` (configuration not stated), the GI50 is reported as inactive: > 100 µM.
`Cc1c(C(=O)CC(=O)C(=O)NC2C3CC4CC(C3)CC2C4)[n+]([O-])c2ccccc2[n+]1[O-]` (configuration not stated) was tested, and the GI50 was inactive: > 100 µM.
With `CO/N=C(/C(=O)Nc1c[n+](CC(=O)[O-])cs1)c1csc(N)n1` the GI50 was inactive: > 100 µM.
With `Cn1ncc2c(Nc3ccc(Cl)cc3)c3ccccc3nc21` the GI50 was inactive: 17.5 µM.
For `Cc1c(Cl)cccc1NC(=O)c1cccc([N+](=O)[O-])c1O`, the GI50 was inactive: 20.6 µM.
With `COc1cc(O)c2c(O)c3c(c4c2c1[C@]1(C4)C(C)=CCCC1(C)C)[C@H](O)[C@@]1(O)CC(O)=C(C(N)=O)C(=O)[C@@]1(O)C3=O` the GI50 was active: 0.444 µM.
With `Cc1cc(C)c(C(=O)O)c(N)c1O` the GI50 was inactive: > 100 µM.
For `c1ccc(N2CCN(CCN3CCc4c([nH]c5ccccc45)C3c3cccnc3)CC2)cc1` (configuration not stated), the GI50 was inactive: > 100 µM.
`COc1cc(/N=C\N(C)C)c2ncccc2c1` was tested, and the GI50 was inactive: > 100 µM.
For `Cc1nc(-c2ccc(/N=C/c3ccc(N(CCOS(C)(=O)=O)CCOS(C)(=O)=O)cc3C)cc2)cs1`, the GI50 was inactive: 58.2 µM.
In the case of `N=C(/C=C/c1ccc(-c2cn3cc(/C=C/C(=N)N4CCCC4)ccc3n2)cc1)N1CCCC1`, the GI50 is reported as inactive: > 100 µM.
`OCCSCCCSCCO` was tested, and the GI50 was inactive: > 100 µM.
For `COc1cc(Br)cc2cc(C3=CSC4=NCCN34)c(=O)oc12`, the GI50 was inactive: 18.3 µM.
`CS(=O)(=O)NNS(=O)(=O)c1ccc(Br)cc1` was tested, and the GI50 was inactive: > 100 µM.
For `COC1O[C@H]2[C@H]3[C@@H]1[C@@H](OS(=O)(=O)c1ccc(C)cc1)C(=O)N3C[C@H]2O` (some centres not stated), the GI50 was inactive: > 100 µM.
For `CC(C)(C)C#COC(=O)c1ccccc1`, the GI50 was inactive: > 100 µM.
With `CNC(=O)C(C)NC(=O)C(Cc1ccccc1)NC(=O)OC(C)(C)C` (configuration not stated) the GI50 was inactive: > 100 µM.
For `Cc1cc2c(c(C)c1O)C(C)(C)CN2C(=O)C(C)(C)C`, the GI50 was inactive: > 100 µM.
With `CCOC(=O)C1Cc2ccc(C)cc2C1=O` (configuration not stated) the GI50 was inactive: > 100 µM.
For `COc1cccc(-c2ccc3c4c2O[C@H]2C(=O)CC[C@@]5(O)[C@@H](C3)N(CC3CC3)CC[C@]425)c1`, the GI50 was inactive: 16.3 µM.
In the case of `O=[N+]([O-])c1nccn1COCCI`, the GI50 is reported as inactive: > 100 µM.
For `CN(C)NC1=NS(=O)(=O)c2cc3c(cc2S1)N(N(C)C)C(=O)c1cc2c(cc1N(N(C)C)C3=O)SC(NN(C)C)=NS2(=O)=O`, the GI50 was inactive: > 10 µM.
For `CO/N=C(\C(=O)N(C)n1cnnc1)c1csc(NC(c2ccccc2)(c2ccccc2)c2ccccc2)n1`, the GI50 was inactive: > 10 µM.
With `COC(=O)/C=C(/C(=O)OC)C1(C)c2cc(C(=O)OC)c(C(=O)OC)c(N)c2C(=N)N1c1ccccc1` (configuration not stated) the GI50 was inactive: 55.7 µM.
With `Nc1cc([N+](=O)[O-])ccc1C(=O)N1CCC[C@H]1CO` the GI50 was inactive: > 100 µM.
`CSc1nc(SC)c2c(C(N)=S)n[nH]c2n1` was tested, and the GI50 was inactive: 40.2 µM.
For `CN(Cc1nc2c(N)nc(N)nc2nc1N)c1ccc(C(=O)NC(CCC(=O)O)C(=O)O)cc1` (configuration not stated), the GI50 was inactive: 6.12 µM.
In the case of `CCOP(=O)(OCC)[C@H]1OC(C)(C)O[C@@H]1CO`, the GI50 is reported as inactive: > 100 µM.
In the case of `O=C1CC2(CCC(O)(c3cccc4ccccc34)C(C(=O)c3cccc4ccccc34)C2)C(=O)c2ccccc2N1` (configuration not stated), the GI50 is reported as inactive: 69.7 µM.
With `CC(C)(C)C(=O)Nc1c(C=O)ccc2[nH]cnc12` the GI50 was inactive: > 100 µM.
In the case of `CCCCC1Cc2ccccc2-c2nc3ccccc3n21` (configuration not stated), the GI50 is reported as inactive: 17.1 µM.
In the case of `O=C1CC(c2ccccc2)C2(C(=O)NC(=S)NC2=O)C(c2ccccc2)C1` (configuration not stated), the GI50 is reported as inactive: > 75 µM.
With `O=C(CSc1nc2ccc(I)cc2c(=O)n1Cc1ccccc1)NN1C(=O)CSC1c1ccccc1` (configuration not stated) the GI50 was inactive: 33.4 µM.
`CCCCn1cc[n+](-c2nc3ccccc3n2C)c1` was tested, and the GI50 was inactive: > 100 µM.
For `O=c1[nH]nc(-c2ccccc2)n1/N=C\c1ccccc1`, the GI50 was inactive: > 100 µM.
`O=C(CSc1nc(-c2ccccc2)c(-c2ccccc2)[nH]1)N/N=C/c1ccc(O)cc1` was tested, and the GI50 was inactive: 28.6 µM.
With `CCOC(=O)N/N=C(/N)Cc1ccc(Cl)cc1` the GI50 was inactive: > 100 µM.
For `S=c1c2cc(I)ccc2nc(S)n1Cc1ccccc1`, the GI50 was inactive: 4.66 µM.
For `O=C1C(Cl)N(c2ccccc2[N+](=O)[O-])C1c1c[nH]c2ccccc12` (configuration not stated), the GI50 was inactive: > 100 µM.
In the case of `CCOc1ccccc1NC(=O)C(=O)C(/C(=N/N)C(=O)OC)c1nc2ccc([N+](=O)[O-])cc2nc1O` (configuration not stated), the GI50 is reported as inactive: > 100 µM.
With `CCc1n[nH]c(=O)n1N1C(=O)C2CC=CCC2C1=O` (configuration not stated) the GI50 was inactive: > 100 µM.
In the case of `Cc1cc(N(CCC#N)CCC#N)ccc1/C=C1N=C(/C=C\c2ccccc2)N(NC(=O)CC(=O)Nc2ccccc2Cl)C\1=O`, the GI50 is reported as inactive: > 100 µM.
With `CCCc1c(C(=O)OCC)[nH]c(-c2ccc(-c3[nH]c(C(=O)OCC)c(CCC)c3C(=O)OCC)s2)c1C(=O)OCC` the GI50 was inactive: > 100 µM.
In the case of `CN(C)CCCN1C(=O)N(CCCN(C)C)c2c3cc(O)ccc3nc3c([N+](=O)[O-])ccc1c23`, the GI50 is reported as inactive: 15.8 µM.
For `O=C(N/N=C/c1ccccc1O)N/N=C/c1ccccc1O`, the GI50 was inactive: > 100 µM.
For `CCCC1N2CCCCC2[C@@H]2c3[nH]c4ccccc4c3CCN12` (some centres not stated), the GI50 was inactive: > 100 µM.
In the case of `COC(=O)[C@@H]1CN(C(=O)c2ccccc2)C(=O)N1`, the GI50 is reported as inactive: > 100 µM.
For `CN(C)c1nc2n(CCO)ccnc-2c(=O)n1`, the GI50 was inactive: > 100 µM.
`O=S(=O)(O)CCSSCCS(=O)(=O)O` was tested, and the GI50 was inactive: > 1000 µM.
In the case of `Cc1cccc2c(=O)c3cccc([C@H](C)C(=O)O)c3oc12`, the GI50 is reported as inactive: > 100 µM.
`O=C1CC2[C@@H](N3CCCC3)CCC(N1Cc1ccccc1)C2(O)O` (some centres not stated) was tested, and the GI50 was inactive: > 100 µM.
For `CC(C)=NOC(=O)OC[C@H]1O[C@@H](n2cnc3c(N)ncnc32)C(O)C1O` (some centres not stated), the GI50 was inactive: 48.1 µM.
`NC(=O)C1CCCN1C(=O)N(CCCl)N=O` (configuration not stated) was tested, and the GI50 was inactive: > 100 µM.
`Cn1c(=O)nc2n(-c3cc(C(F)(F)F)cc(C(F)(F)F)c3)c3ccccc3nc-2c1=O` was tested, and the GI50 was inactive: > 100 µM.
`c1ccc2c3c(c(N4CCNCC4)nc2c1)CCCC3` was tested, and the GI50 was inactive: 16.9 µM.
With `O=C1OC(c2ccc(O)c(Cl)c2)(c2ccc(O)c(Cl)c2)c2ccc(Br)c3cccc1c23.O=C1OC(c2ccc(O)c(Cl)c2)(c2ccc(O)c(Cl)c2)c2cccc3c(Br)ccc1c23` the GI50 was inactive: 12.5 µM.
